The campaign covered roughly 230,000 compounds. About 1,500 (0.65%) were called active. Inconclusive results, whose numbers are uncertain, are shown with a selection of clear calls. Calls follow the shape of the dose curve; as a rule, active = well fitted inhibition curve with a large enough effect; inconclusive = small, poorly fitted or top-dose-only effect; inactive = no such curve, though single readings can be large or run the other way. Potencies of inconclusive entries are doubtful fits and often do not repeat.
molecular target: Lethal(3)malignant brain tumor-like protein 1 (Homo sapiens) (UniProt Q9Y468); assay: qHTS Assay for the Inhibitors of L3MBTL1; settings: AlphaScreen L3MBTL1–H3K9me1 peptide binding; activity, negative = inhibition: at 57.1 µM (top of the series); also: nearly all actives have a fitted effect of over 60% in size
How it was run: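 Displacement of a biotinylated histone H3(1-15) peptide monomethylated at Lys9 (75 nM) from L3MBTL1 (50 nM) was measured by AlphaScreen after a 30 min room-temperature compound incubation; cefsulodin titration served as intraplate control.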
% is scaled to controls: 0 for no effect and ±100 for the full control effect; potency is read from the fitted curve at half-maximal effect; tags tell the direction and shape of the fitted curve.

UniProt Q9Y468, sequence (Q9Y468 whole entry, looked up): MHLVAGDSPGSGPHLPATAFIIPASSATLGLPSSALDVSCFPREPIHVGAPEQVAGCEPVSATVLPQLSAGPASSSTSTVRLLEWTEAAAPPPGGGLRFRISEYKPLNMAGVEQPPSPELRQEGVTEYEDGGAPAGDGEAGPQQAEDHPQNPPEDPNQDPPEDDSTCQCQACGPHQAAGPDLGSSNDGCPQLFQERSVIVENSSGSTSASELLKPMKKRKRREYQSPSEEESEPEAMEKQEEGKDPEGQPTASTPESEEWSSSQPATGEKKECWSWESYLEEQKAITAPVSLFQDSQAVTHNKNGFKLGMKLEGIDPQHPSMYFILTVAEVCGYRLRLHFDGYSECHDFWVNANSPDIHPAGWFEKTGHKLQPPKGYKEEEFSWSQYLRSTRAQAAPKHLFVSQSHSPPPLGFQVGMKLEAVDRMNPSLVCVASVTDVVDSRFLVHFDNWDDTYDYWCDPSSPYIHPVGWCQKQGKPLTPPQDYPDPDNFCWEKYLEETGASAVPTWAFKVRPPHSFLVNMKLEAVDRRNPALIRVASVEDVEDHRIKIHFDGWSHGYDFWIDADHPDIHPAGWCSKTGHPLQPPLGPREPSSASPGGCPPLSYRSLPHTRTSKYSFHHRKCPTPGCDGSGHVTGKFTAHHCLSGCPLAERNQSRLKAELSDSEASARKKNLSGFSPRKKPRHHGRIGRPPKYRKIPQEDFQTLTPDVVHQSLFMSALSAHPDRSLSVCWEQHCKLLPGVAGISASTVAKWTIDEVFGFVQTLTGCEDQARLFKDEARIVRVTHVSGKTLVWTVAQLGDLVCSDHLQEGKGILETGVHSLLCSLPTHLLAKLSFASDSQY

Row | SMILES | Potency | activity, negative = inhibition
1 | CC(=O)c1ccccc1NC(=O)COC(=O)c1cc[n+]([O-])cc1 | inconclusive: 1.41 µM [inhibitor, single point] | 
2 | Cc1cccc(-c2cc3nc4c(c(NCc5ccco5)n3n2)CCCC4)c1 | inactive | 
3 | CCN(CC#CCC1(O)c2ccccc2-c2ccccc21)CCO | inactive | 
4 | O=C(Nc1ccccc1)Nc1cccc2nsnc12 | inactive | 
5 | Cn1nnc2cc(NC(=O)NCc3ccc4c(c3)OCO4)ccc21 | inconclusive: 3.55 µM [inhibitor, partial curve] | 
6 | O=C(N/N=C/c1cc(O)ccc1Br)c1cccnc1 | inconclusive: 20 µM [inhibitor, partial curve] | 
7 | COc1cc2c(cc1NC(=O)CSc1nccn1C)oc1ccccc12 | inconclusive: 39.8 µM [inhibitor, single point] | 
8 | COc1ccc(-c2nc(C)ncc2N=Nc2ccccc2)cc1 | inconclusive: 28.2 µM [inhibitor, partial curve] | 
9 | Brc1ccccc1C1Nc2cccc3cccc(c23)N1 |  | inconclusive: -33.1% [inhibitor]
10 | COC(=O)C1CCN(C(=O)COC(=O)c2cccc(NS(=O)(=O)c3ccccc3)c2)CC1 | inactive | 
11 | N#C/C(=C\c1ccc(O)c(O)c1)S(=O)(=O)c1ccccc1 | inconclusive: 14.1 µM [inhibitor, partial curve] | 
12 | COCCCNC(=S)NNC(=S)Nc1cccc(Cl)c1 | inactive | 
13 | CCOc1cc(CNC(C)(C)CO)cc(Br)c1OCc1ccc(Cl)cc1Cl | inactive | 
14 | NS(=O)(=O)c1ccc(Nc2nc3ccccc3nc2NS(=O)(=O)c2cccc([N+](=O)[O-])c2)cc1 | inconclusive: 14.1 µM [inhibitor, partial curve] | 
15 | Oc1ccc(/C=N/NC(=S)Nc2cccnc2)cc1O | active: 11.2 µM | 
16 | Cc1cc(=O)[nH]c(SCc2cccc3cccnc23)n1 | inconclusive: 3.55 µM [inhibitor, partial curve] | 
17 | CC(C)/C(=N/Nc1ccccc1[N+](=O)[O-])c1ccccc1 | inconclusive: 35.5 µM [inhibitor, single point] | 
18 | CCOC(=O)C1=C(O)CSC1=Nc1ccc(C)cc1 | inconclusive: 0.141 µM [inhibitor, full curve, poor fit] | 
19 | CN(c1ccccc1)S(=O)(=O)c1cccc(NC(=O)c2ccc(=O)[nH]n2)c1 | inconclusive: 35.5 µM [inhibitor, single point] | 
20 | CCN(CC(=O)Nc1ccc(Br)cc1)CC(=O)Nc1cc(C)on1 | inactive | 
21 | O=C(CCCCCNC(=O)c1ccccc1Cl)N/N=C/c1ccco1 | inconclusive: 39.8 µM [inhibitor, single point] | 

Source: PubChem BioAssay AID485360 (National Center for Advancing Translational Sciences (NCATS), 2010)
